#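 Each compound was tested at five concentrations against cells in 96-well plates for 48 hours. The concentration for 50% growth inhibition is given as GI50. TGI: total growth inhibition.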
# Test system: NCI-H322M lung
# Assay: growth of human tumour cells (NCI), 48 h
Structure (SMILES),GI50 [nM],TGI [nM]
CCN(CC)S(=O)(=O)c1ccc(-c2nc(C(Cl)Cl)nc3cc(C)nn23)cc1,2050,6330
O=C1CCC(N2C(=O)c3ccc(NS(=O)(=O)c4ccccc4OC(F)(F)F)cc3C2=O)C(=O)N1 (stereo not drawn),724,> 100000
NC(N)=Nc1ccc(Oc2cccc(Nc3ccc(Cl)c(C(F)(F)F)c3)c2)cc1,1750,3380
COc1ccc(Cn2cc3c(c2-c2cc(OC)c(OC)c(OC)c2)CCCc2cnoc2-3)cc1N,1840,> 100000
